We go through eight compounds from PubChem BioAssay (NCATS).

Structures are written as SMILES. Where “and” joins values, the source holds several entries; their conditions need not be identical. Equal entries are not always repeated. The list shows a part of the results. Shown are side measurements of this screen, not its main read-out; they come without a call. For some of these results: The list favours compounds with an active or inconclusive main result. For some of these results: The note in brackets gives the kind of curve behind each potency; many fits are weak.

The nature of test [1]: qHTS Assay for Lipid Storage Modulators (AID 1519). To be noted: Drosophila S3 cells, BODIPY lipid droplet/cell ratio, laser cytometry, cells loaded with oleic acid. The method, boiled down:
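Cells seeded at 5,000 per well were treated with compounds over a concentration series and loaded with oleic acid (400 uM, as added). Lipid droplet fluorescence (488 nm excitation, 500-530 nm channel) was read by laser-scanning cytometry and normalized to 20 uM Triacsin C.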
For orientation: In qHTS, concentration-response curves come from the screen itself.

In test [2] the target is Catechol O-methyltransferase (Homo sapiens) (UniProt P21964). Nature of the test: Confirmatory Screen for Target Class Profiling of Small Molecule Inhibitors of Methyltransferases (AID 1745852).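 Further: inhibitor potency for blocking SAH production.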 The note with it: MTase-Glo luminescence, SAH detection, recombinant enzyme; measured here: COMT inhibition potency.
Test [3] deals with Histamine N-methyltransferase (Homo sapiens) (UniProt P50135). The description is as above. To be noted: MTase-Glo luminescence, SAH detection, recombinant enzyme; measured here: HNMT inhibition potency.
Test [4] deals with Nicotinamide N-methyltransferase (Homo sapiens) (UniProt P40261). The test is described as above. To be noted: MTase-Glo luminescence, SAH detection, recombinant enzyme; measured here: NNMT inhibition potency.
Test [5] deals with Phenylethanolamine N-methyltransferase (Homo sapiens) (UniProt P11086). The test is described as above. To be noted: MTase-Glo luminescence, SAH detection, recombinant enzyme; measured here: PNMT inhibition potency.
Test [6] is described as follows: NCATS anti-infectives library activity on the primary C. elegans qHTS viability assay (AID 1745855). The note with it: C. elegans worm area imaging, day 7; measured here: worm number, day 3. A digest of the protocol: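 GFP read-out by 488 nm laser cytometry at day 0, 3 and 7, gated on object perimeter, area and peak intensity, scored viability of PE254-GFP-FLuc worms exposed to compound in S medium with bacterial capsules at 21 °C.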

Test [7] in a line: qHTS drug screen for cell cycle checkpoint inhibitors in PARPi-resistant BRCA-mutant ovarian cancer cell lines. (AID 1963452). The note with it: PEO1/OlaR viability, CellTiter-Glo luminescence, 96 h. A digest of the protocol:
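PEO1, PEO4 and PEO1/OlaR ovarian cancer cells, 600 per well, exposed 96 h at 37C to a dilution series. Viability read by CellTiter-Glo luminescence, normalized to DMSO and empty wells; activity summarized as Z-AUC.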

Test [8] can be described thus: qHTS for identification of novel therapeutic agents for treatment of microphthalmiaassociated transcription factor (MiT) renal cell carcinoma (RCC) (AID 1963991). To be noted: CellTiter-Glo, 48 h; for z-score: stronger effect = lower value. The method, boiled down: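 Three TFE3-fusion RCC lines (UOK109, UOK124, UOK145), 500 cells/well in complete medium, were treated with MIPE 4.0 compounds for 48 hours at 37 C. Viability was by CellTiter-Glo luminescence, normalized to DMSO (100%) and empty wells (0%); curves fitted over 11 concentrations.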

Test [9] can be described thus: qHTS assay for small molecule antagonists of androgen receptor signaling (AID 588516). The note with it: AR-UAS-bla HEK293, beta-lactamase ratio, antagonist mode, 16 h. A digest of the protocol:
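Antagonist mode: inhibition of R1881-stimulated (10 nM final) bla reporter in GeneBLAzer AR HEK 293 cells, 16 h at 37C, compounds titrated. IC50 and efficacy from Hill-equation fits of 405/460–530 nm FRET ratios.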

Test [10] is described as follows: qHTS assay for small molecule antagonists of peroxisome proliferator-activated receptor delta signaling (AID 588535).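 Further: cells co-treated with a PPAR-delta agonist as stimulator during compound exposure.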 To be noted: HEK293T PPARd-UAS-bla, beta-lactamase FRET ratio, 18 h; 460 nm channel. The method, boiled down:
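Fluorescence from CCF4-loaded GeneBLAzer PPAR-delta-UAS-bla HEK293T cells (2 hrs RT loading) quantified reporter inhibition after an 18 hr, 37 C compound exposure across a titration.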

A short description of test [11]: qHTS assay for small molecule antagonists of peroxisome proliferator-activated receptor gamma signaling (AID 588537). To be noted: HEK293 PPARg-UAS-bla, beta-lactamase ratio, antagonist mode; measured here: W460 blue channel. A digest of the protocol: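 Fluorescence at 460 and 530 nm (405 nm excitation) reported beta-lactamase cleavage of CCF4 after 2 h room-temperature loading. HEK293 reporter cells in 1% charcoal/dextran-treated FBS had received compound and rosiglitazone for 16 h.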

Test [12] is described as follows: qHTS assay for small molecule antagonists of vitamin D receptor signaling (AID 588541). To be noted: HEK293T VDR-UAS-bla, beta-lactamase ratio, antagonist mode; measured here: W460 blue channel (cell viability).
Test [13] in a line: qHTS assay for small molecule agonists of retinoid X receptor alpha signaling (AID 588544). The note with it: HEK293T RXRa-UAS-bla, beta-lactamase reporter, 18 h; 530 nm emission.
A short description of test [14]: qHTS assay for small molecule antagonists of retinoid X receptor alpha signaling (AID 588546).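 Further: cells stimulated with 9-cis-retinoic acid as agonist; on the % scale 0 is the no-effect control and ±100 the full control effect.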 To be noted: HEK293T RXRa-UAS-bla, beta-lactamase ratio, antagonist mode; measured here: W530 green channel, cytotoxicity proxy. The method, boiled down: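 Beta-lactamase reporter inhibition, read as CCF4 fluorescence ratio (ex 405, em 460/530 nm) after 2 h at RT. HEK293T UAS-bla cells, 2500/well, were stimulated with 9-cis-RA at 500 or 100 nM final alongside test compound for 18 h at 37 C.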

Test [15] can be described thus: qHTS Assay for Modulators of Human Peripheral Myelin Protein 22 (PMP22) Expression/Activity (AID 1967). To be noted: Cell-based PMP22 reporter, dual-color luciferase ratio. The method, boiled down: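 Readout is the corrected green/red luminescence ratio after 24 h compound exposure, normalised to untreated cells (0%). Engineered MSC80 mouse Schwann cells express green luciferase from the mouse Pmp22 promoter and red luciferase from EF-alpha as internal control.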

A short description of test [16]: A High-Content qHTS Against Drug Library for the Identification of Small Molecules that Inhibit DYT1 Early Onset Primary Dystonia-Associated Cell Pathology (AID 1645839). The note with it: HEK293 Flp-In EGFP-delE TorsinA, punctate imaging, 48 h; measured here: cell count cytotoxicity. The method, boiled down: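 Cells were seeded and left for 24 h, then dosed with compound alongside tetracycline induction of mutant EGFP-TorsinA. They were incubated for 48 h, fixed in 4% paraformaldehyde, permeabilized and imaged for mislocalization (%pathology) and cell count.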

Test [17] in a line: qHTS Validation Assay to Find Inhibitors of Chronic Active B-Cell Receptor Signaling (AID 485345). The note with it: ABC-DLBCL cells, chronic BCR signaling reporter; measured here: CBR control luciferase (viability counter). The method, boiled down:
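TMD8 ABC-DLBCL cells stably carrying doxycycline-inducible IkappaBalpha–green luciferase fusion plus unfused red luciferase; compounds 46 uM to 3 nM, 4 h at 37C with doxycycline. Corrected green/red luminescence ratio normalized to 10 uM MG-132 and basal cell wells; curves fitted.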

Test [18] is described as follows: qHTS assay for small molecule antagonists of glucocorticoid receptor signaling (AID 588533).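 Further: cells stimulated with 2 nM dexamethasone as agonist.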 To be noted: HeLa MMTV-bla, GRE beta-lactamase ratio, antagonist mode, 18 h; measured here: W530 channel AC50.
Setting [19] is: measured here: cell count channel max response.
Where [20] appears, read: measured here: cell number channel AC50.
Where [21] appears, read: measured here: lipid (BODIPY) channel AC50.
Setting [22] is: measured here: lipid channel max response.
Setting [23] is: measured here: PEO1 parental viability.
The mark [24] stands for this setting: TFE3-RCC UOK109 viability, measured here: UOK109 Z-AUC.
The mark [25] stands for this setting: TFE3-RCC viability, measured here: UOK124 Z-AUC.
[26] abbreviates: TFE3-RCC viability, measured here: UOK124 cell viability.
Setting [27] is: TFE3-RCC viability, measured here: UOK145 Z-AUC.
The mark [28] stands for this setting: TFE3-RCC viability, measured here: UOK145 cell viability.
Setting [29] is: measured here: W530 green channel, cytotoxicity/artifact.
Tags describe the fitted curve by direction and shape.

Chain of UniProt P21964 (P21964 whole entry, looked up): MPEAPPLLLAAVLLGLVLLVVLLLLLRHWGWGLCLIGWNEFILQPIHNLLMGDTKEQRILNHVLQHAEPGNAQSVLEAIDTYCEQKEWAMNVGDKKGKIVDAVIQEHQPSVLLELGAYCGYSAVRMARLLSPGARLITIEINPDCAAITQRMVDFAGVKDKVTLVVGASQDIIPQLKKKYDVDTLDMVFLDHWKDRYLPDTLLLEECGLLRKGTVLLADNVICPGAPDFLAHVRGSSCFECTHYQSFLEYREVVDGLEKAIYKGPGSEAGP
Chain of UniProt P40261 (P40261 whole entry, looked up): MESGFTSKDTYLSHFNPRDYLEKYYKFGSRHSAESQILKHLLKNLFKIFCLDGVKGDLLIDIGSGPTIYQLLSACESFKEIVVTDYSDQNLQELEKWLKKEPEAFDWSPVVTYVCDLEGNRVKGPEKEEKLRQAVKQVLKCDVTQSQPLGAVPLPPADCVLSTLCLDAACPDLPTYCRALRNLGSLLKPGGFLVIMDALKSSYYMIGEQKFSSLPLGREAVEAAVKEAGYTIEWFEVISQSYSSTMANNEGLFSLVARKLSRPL
Chain of UniProt P50135 (P50135 whole entry, looked up): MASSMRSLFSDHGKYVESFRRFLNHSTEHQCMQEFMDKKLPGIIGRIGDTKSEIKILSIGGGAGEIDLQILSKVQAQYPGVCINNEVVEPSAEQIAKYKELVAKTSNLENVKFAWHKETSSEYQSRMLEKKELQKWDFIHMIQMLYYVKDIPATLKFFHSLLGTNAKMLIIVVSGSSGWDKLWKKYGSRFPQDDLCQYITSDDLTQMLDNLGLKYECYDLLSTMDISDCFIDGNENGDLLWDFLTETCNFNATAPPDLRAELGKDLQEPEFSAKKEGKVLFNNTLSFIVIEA
Chain of UniProt P11086 (P11086 whole entry, looked up): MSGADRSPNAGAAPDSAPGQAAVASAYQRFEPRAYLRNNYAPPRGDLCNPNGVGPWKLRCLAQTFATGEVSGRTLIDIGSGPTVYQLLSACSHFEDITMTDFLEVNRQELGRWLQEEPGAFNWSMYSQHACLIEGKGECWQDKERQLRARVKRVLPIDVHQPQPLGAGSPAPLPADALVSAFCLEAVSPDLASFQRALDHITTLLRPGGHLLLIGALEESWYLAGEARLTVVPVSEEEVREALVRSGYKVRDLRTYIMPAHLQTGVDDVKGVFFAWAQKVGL

On to `CN(C)CCCn1cc(C2=C(c3c[nH]c4ccccc34)C(=O)NC2=O)c2ccccc21`, for which the figures for the max response in test [1] (setting [19]) and in [1] (setting [22]) were 80.7% and -38.5%, respectively. The AC50 (as a rule, the concentration giving half of the maximal activity seen) is 2.82 µM [rising, full curve] in [1] (setting [20]) and 2 µM [rising, partial curve, poor fit] in test [1] (setting [21]). Besides, the IC50 (usually the concentration at which inhibition is half-maximal) is 21.5 µM [falling, partial curve] in [2]; 17.1 µM [falling, partial curve] in test [3]; 24.1 µM [falling, partial curve] in test [4]; 21.5 µM [falling, partial curve] in [5].

As for `O=c1ccc2cc3ccoc3cc2o1`, the max response in [1] (setting [19]) is 138%; in [1] (setting [22]), 182%. Besides, the AC50 in [1] (setting [20]) was 8.91 µM [rising, partial curve]; in test [1] (setting [21]) it was 14.1 µM [rising, partial curve]; in [6], 4.09 µM [falling, partial curve, poor fit].

Consider `CC(C)c1ccc(Cn2ccc3c4c(N)nc(NC5CC5)nc4ccc32)cc1`, for which the figures for the max response in [1] (setting [19]) and in test [1] (setting [22]) were 56.6% and 45.1%, respectively. Also, the AC50 in [1] (setting [20]) is 3.16 µM [rising, full curve]; in test [1] (setting [21]), 3.55 µM [rising, full curve]; in [7] (setting [23]) it was 0.245 µM [falling, full curve, poor fit]; in test [7] (measured here: PEO4 viability), 0.155 µM [falling, full curve]; in [8] (setting [26]), 5.26 µM [falling, full curve]; in test [8] (setting [28]), 13.2 µM [falling, partial curve]. For the same compound, the z-score in test [8] (setting [24]) is -0.134; in test [8] (setting [25]), -0.884; in test [8] (setting [27]), -0.385.

For the compound `C[C@H]1O[C@@H](O[C@H]2[C@@H](O)C[C@H](O[C@H]3[C@@H](O)C[C@H](O[C@H]4CC[C@@]5(C)[C@H](CC[C@@H]6[C@@H]5C[C@@H](O)[C@]5(C)[C@@H](C7=CC(=O)OC7)CC[C@]65O)C4)O[C@@H]3C)O[C@@H]2C)C[C@H](O)[C@@H]1O`, the max response is 72.3% in [1] (setting [19]); 83.6% in test [1] (setting [22]); -90.3% and -95.4% in [10]; 58.8% and 48.1% in test [13]; 42.4% and 52.4% in [14]. Moreover, the AC50 in test [1] (setting [20]) was 10 µM [rising, partial curve, poor fit]; in [1] (setting [21]), 11.2 µM [rising, partial curve, poor fit]; in test [9] (measured here: W460 blue channel fit), 1 µM [falling, full curve]; in test [9] (setting [29]), 0.355 µM [rising, full curve]; in [11] it was 3.98 µM [falling, full curve] and 35.5 µM [falling, partial curve, poor fit]; in test [12], 100 nM [falling, full curve] and 1.41 µM [falling, full curve]. Moreover, the AC50 in [7] (setting [23]) is 0.245 µM [falling, full curve]; in test [7] (measured here: PEO4 viability), 0.0977 µM [falling, full curve].

With `O=C(CCCN1CCC(O)(c2ccc(Cl)cc2)CC1)c1ccc(F)cc1`, the max response is 74.9% and -85.6% in test [1] (setting [19]); 93.4% and -86.5% in test [1] (setting [22]). Further, the AC50 was 28.2 µM [rising, partial curve, poor fit] and 39.8 µM [falling, partial curve, poor fit] in [1] (setting [20]); 31.6 µM [rising, partial curve, poor fit] and 39.8 µM [falling, partial curve, poor fit] in [1] (setting [21]); 53.6 µM [falling, partial curve] in test [15] (measured here: green reporter channel AC50, mouse Pmp22 promoter in mouse Schwann cells); 60.1 µM [falling, partial curve, poor fit] in test [15] (measured here: red reporter channel AC50, EF-alpha promoter control reporter in MSC80 mouse Schwann cells); 15.8 µM [falling, single point] in test [16]; 20.9 µM [falling, partial curve] in test [8] (setting [26]). The z-score in test [8] (setting [24]) came to 0.156; in test [8] (setting [25]) it was 0.216; in [8] (setting [27]) it was 0.535.

Consider `COc1ccc(C(C)=O)c(O)c1`, for which the results for the max response in test [1] (setting [19]) and in test [1] (setting [22]) were 31% and 57.8%, respectively. Further, the AC50 in [1] (setting [20]) was 15.8 µM [rising, partial curve, poor fit]; in test [1] (setting [21]), 22.4 µM [rising, partial curve, poor fit]. Also, the figures for the z-score in test [8] (setting [24]), in test [8] (setting [25]) and in test [8] (setting [27]) were -0.162, 0.735 and 0.386, respectively.

On to `O=c1c(-c2ccc(O)cc2)coc2cc(O)ccc12`, for which the max response in [1] (setting [19]) is 42.5%; in [1] (setting [22]) it was 49.4%; in [13] it was 16.3% and 14.5%. The AC50 is 6.31 µM [rising, full curve, poor fit] in test [1] (setting [20]); 7.08 µM [rising, full curve, poor fit] in test [1] (setting [21]); 0.0651 µM [rising, full curve, poor fit] in [17]; 44.7 µM [rising, single point] in [9] (setting [29]); 0.0616 µM [rising, partial curve, poor fit] in test [7] (measured here: PEO4 viability).

Turning to `CCCC(CCC)C(=O)O`, the max response was -15.9% in test [1] (setting [19]) and -14.4% in test [1] (setting [22]). Further, the AC50 is 3.98 µM [falling, partial curve] in test [1] (setting [20]); 3.98 µM [falling, partial curve, poor fit] in test [1] (setting [21]); 891 µM [rising, partial curve, poor fit] in test [18]; 50.1 µM [rising, single point] in test [11]; 20.9 µM [falling, single point] in [8] (setting [28]). Also, the z-score in test [8] (setting [24]) was -0.879; in test [8] (setting [25]), 0.615; in [8] (setting [27]) it was -0.427.
